{
  "source": "PubChem BioAssay AID2546",
  "about": "(National Center for Advancing Translational Sciences (NCATS), 2010)",
  "note": "Hit rate of the full screen: of about 310,000 compounds, about 11,000 (3.5%) were called active. The shares of active, inactive and inconclusive entries below differ from those in the screen. Calls come from the whole dose curve; as a rule, active = well fitted inhibition curve with a large enough effect; inconclusive = small, poorly fitted or top-dose-only effect, or effect the other way; inactive = flat fitted curve, though single readings scatter. No potency is given beside an inconclusive call; the fits are too rough. Potency is the fitted concentration of half-maximal effect; tags give direction and shape of the fitted curve.",
  "data": [
    {"test": "VP16 counterscreen qHTS for inhibitors of ROR gamma transcriptional activity;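 note: Gal4-VP16 expression switched on by copper sulfate through the metallothionein promoter; nearly all actives have a fitted effect of over 50% in size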", "conditions": "Drosophila S2 Gal4-VP16 UAS-luciferase, luminescence, 20 h; series mostly up to 53.6 µM", "values": [
      {"smiles": "COc1cccc(CNC(=O)c2cc3c(C)nc4ccccc4c3o2)c1", "Potency": "inconclusive [inhibitor, single point]"},
      {"smiles": "C/C(=N\\NC(=O)c1cccc([N+](=O)[O-])c1)c1cccs1", "Potency": "active: 6.31 µM"},
      {"smiles": "COc1ccc(NS(=O)(=O)c2ccc3oc4ccccc4c3c2)cn1", "Potency": "inconclusive [inhibitor, single point]"},
      {"smiles": "CCOc1ccc(C(=O)NCc2ccc3c(c2)OCO3)cc1OCC", "Potency": "inactive"},
      {"smiles": "O=C(CN1CCN(C(=O)c2ccccc2)CC1)Nc1ncc(Br)cc1Br", "Potency": "inactive"},
      {"smiles": "Cc1nc(SCC(=O)NC(C)(C#N)C2CC2)c2c(-c3cccs3)csc2n1", "note": "(stereo not given)", "Potency": "inconclusive [inhibitor, single point]"},
      {"smiles": "Cc1c(C(C)C)c(=O)n(-c2ccc(S(=O)(=O)NC(C)C)cc2)n1C", "Potency": "inconclusive [inhibitor, partial curve, poor fit]"},
      {"smiles": "CC1CN(CN2C(=O)c3ccccc3C2=O)CC(C)O1", "note": "(stereo not given)", "Potency": "active: 12.6 µM"},
      {"smiles": "CSc1ccc(S(=O)(=O)N2CCC(C(=O)NCCN3CCOCC3)CC2)cc1", "Potency": "inactive"},
      {"smiles": "Clc1ccc(Cn2ncc3c(N4CCCCC4)ncnc32)cc1", "Potency": "inconclusive [inhibitor, single point]"},
      {"smiles": "CCc1nc(CN(C)C(=O)C2CCC(=O)N(CCc3cccc(F)c3)C2)no1", "note": "(stereo not given)", "Potency": "inconclusive [activator, single point]"},
      {"smiles": "Cc1cc(C)nc(Nc2n[nH]c(-c3ccccc3N)n2)n1", "Potency": "inconclusive [inhibitor, single point]"},
      {"smiles": "CSc1ccccc1OCc1cc(C(=O)N2CCc3c(Cl)cccc3C2)no1", "Potency": "inconclusive [inhibitor, single point]"},
      {"smiles": "Cn1cnnc1SCc1ccc(C(=O)N=Nc2c(O)n(Cc3ccc(Cl)cc3)c3ccccc23)cc1", "Potency": "inconclusive [inhibitor, single point]"},
      {"smiles": "COc1ccc(OC)c(/C=C2\\SC(=S)N(Cc3cccnc3)C2=O)c1", "Potency": "inconclusive [inhibitor, single point]"},
      {"smiles": "COc1ccc2nc(NC(=S)NC(=O)c3ccco3)sc2c1", "Potency": "inconclusive [inhibitor, single point]"},
      {"smiles": "CCCCCCCCCCCCCCCC[N+](C)(C)CCN(Cc1ccc(OC)cc1)c1ncccn1", "Potency": "inconclusive [inhibitor, single point]"},
      {"smiles": "NC(=S)N/N=C/c1ccc(C23CC4CC(CC(C4)C2)C3)cc1", "Potency": "active: 2.82 µM"},
      {"smiles": "O=C(Nc1nc(-c2ccc(F)cc2)cs1)c1cnccn1", "Potency": "inconclusive [inhibitor, single point]"},
      {"smiles": "CCn1c(/C=C/c2cc(Br)ccc2O)nc2ccccc2c1=O", "Potency": "inactive"},
      {"smiles": "CCSc1nsc(NC(=O)Nc2ccc(F)cc2F)n1", "Potency": "inconclusive [inhibitor, partial curve, poor fit]"},
      {"smiles": "Cc1ccc(NC(=S)NC(=O)C2CC2)cc1Cl", "Potency": "active: 5.01 µM"},
      {"smiles": "O=C(NC1=C(Nc2ccc(Cl)cc2)C(=O)c2ccccc2C1=O)c1ccccc1", "Potency": "inconclusive [inhibitor, single point]"},
      {"smiles": "O=C(C#Cc1ccccc1)NCc1ccccc1F", "Potency": "inconclusive [activator, single point]"},
      {"smiles": "CCOC(=O)N/N=C/c1ccc(N(CC)CC)cc1O", "Potency": "inconclusive [inhibitor, single point]"},
      {"smiles": "CC(C)(C)c1ccc(Oc2ncccc2NC(=O)c2cccs2)cc1", "Potency": "inactive"},
      {"smiles": "c1ccc(Cn2c(CNc3nc4ccccc4n3CCN3CCCCC3)nc3ccccc32)cc1", "Potency": "inconclusive [inhibitor, single point]"},
      {"smiles": "COCCNC(=O)/C(C#N)=C/c1ccc2c(c1)OCO2", "Potency": "inconclusive [activator, partial curve]"},
      {"smiles": "Cn1c(-c2ccc(F)cc2)cnc1SCC(=O)N1CCCCC1", "Potency": "inconclusive [inhibitor, single point]"},
      {"smiles": "Cc1ccc2c(CC(=O)NC3=NCCS3)coc2c1", "Potency": "inconclusive [inhibitor, single point]"},
      {"smiles": "Cc1ccc(-n2c(CCC(=O)O)ccc2-c2cccs2)cc1", "Potency": "inconclusive [inhibitor, single point]"},
      {"smiles": "CN(N=Nc1ccc([N+](=O)[O-])cc1)c1ccccc1", "Potency": "inconclusive [activator, single point]"},
      {"smiles": "O=C1C2C(C(=O)N1/N=C/c1cccc([N+](=O)[O-])c1)C1C=CC2C12CC2", "note": "(stereo not given)", "Potency": "inactive"},
      {"smiles": "Cc1ccc(C)c(Cn2nc3c4ccccc4n(Cc4ccccc4)cc-3c2=O)c1", "Potency": "inactive"},
      {"smiles": "C#C[C@]1(O)CC[C@H]2[C@@H]3CCc4cc(OC)ccc4[C@H]3CC[C@@]21C", "Potency": "inactive"},
      {"smiles": "CC(=O)c1ccc(N2CCN(C(=O)Cn3cnc(S(=O)(=O)N4CCCCC4)c3)CC2)cc1", "Potency": "inactive"},
      {"smiles": "O=C(Oc1ccc(-c2cn3c(n2)SCC3)cc1)c1ccccc1", "Potency": "inconclusive [inhibitor, single point]"},
      {"smiles": "Cc1cccc(/C=N/NC(=O)c2cc(C3CC3)nc3ccccc23)n1", "Potency": "inconclusive [inhibitor, single point]"},
      {"smiles": "C=COCCNC(=S)Nc1cccc(Cl)c1", "Potency": "inconclusive [inhibitor, single point]"},
      {"smiles": "O=C(Nc1nc2ccc(F)cc2s1)C1CCN(S(=O)(=O)c2cc([N+](=O)[O-])ccc2Cl)CC1", "Potency": "active: 5.01 µM"},
      {"smiles": "CCCC(=O)Nc1ccc2c(c1)COC2=O", "Potency": "inconclusive [activator, full curve, poor fit]"},
      {"smiles": "O=C1NC(=Nc2ccccc2)S/C1=C\\c1ccccc1", "Potency": "inactive"},
      {"smiles": "Cc1ccc(NCC(=O)N/N=C/c2ccc(-c3cccc(C(F)(F)F)c3)o2)cc1", "Potency": "inconclusive [inhibitor, single point]"},
      {"smiles": "O=S(=O)(c1ccccc1)N1CCN(c2ncnc3sc(-c4ccccc4)cc23)CC1", "Potency": "inconclusive [inhibitor, single point]"},
      {"smiles": "Cn1c(N)c(C(=O)COC(=O)c2ccc([N+](=O)[O-])o2)c(=O)n(C)c1=O", "Potency": "inconclusive [inhibitor, partial curve]"}
    ]}
  ]
}
